Reference: the supplement of paper PMC11417369
Some of the results follow.

tested on: PfAP2-HC AP2 domain (GST-tagged); test: gcPBM binding intensity (ln(normalized median fluorescence intensity)); higher = stronger DNA binding
In short: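 Binding of GST-tagged P. falciparum DNA-binding domains, expressed in E. coli and used at about 25 μg on average, was carried out for 1 h in 1× PBS containing 1% milk, 0.2 mg/ml BSA, 0.5% salmon testes DNA and 0.03% Triton X-100. The target was an Agilent 4 × 180k array of primer-extended double-stranded 36-bp intergenic genomic probes plus negative controls, read with Alexa488 anti-GST antibody at 488 nm. Binding intensity is the highest Masliner-normalised natural-log median intensity across replicate spots of either probe orientation.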

Sequence | gcPBM binding intensity (ln)
TTTATAAAATTATTTGCATGTAACAATTATAAATTG [TGCATGCA_site1026] | 9.42
TTTTTTTTTCTTTCTCTTTAAATATTAATTAAAAAA [GTGCAC_negctrl_site90] | 9.18
TATAAATATATTTATACACACATTAGTGTATACATG [CACACA_site7397] | 9.88
AGGTGAAAAATATATAATAATGTAACAAAAAAAAAT [XGTACX_negctrl_site394] | 9.76
AACTATAACTAAAAAAATCACATAAAATATTTTATT [TGCATGCA_negctrl_site363] | 9.46
TCGTGTTAAATTTTTACACACAAACTTGCAATAATT [CACACA_site3824] | 9.85
TGTTCTATTCTATTATTATTTACAAATTATAAATAA [GTGCAC_negctrl_site232] | 9.38
TATATATATTAGTGTGCACACTTTTTATTTTTATCC [CACACA_site8506] | 10.6
ATATATTTATAATAGGTGCATATGTTTTATTTTTCC [GTGCAC_site9849] | 9.7
AGATATGTTTTTAATTGTACATAAATACACAAATAT [XGTACX_site5981] | 9.52
TGTAATAAATAGTACACACACACATATATATATATT [CACACA_site1388] | 10.5
AAAAAAAAAAAAAAAAAAAAAATACATATATATATA [CACACA_negctrl_site290] | 9.22
ATATGTGTGTGTATTTGTACCCAATTTTTATATATA [XGTACX_site4948] | 10.3
AAAGAATTATATAAGGTGCACGAATGTTTCTTTAAT | 9.78
ATATTTTTTTTTGTTAGTACTCATATTTGTAGTTTT [XGTACX_site7280] | 9.8
CATTTAAGACAAATTACACACGTATGCCAAATATAT [CACACA_site431] | 9.79
TTTTTAATTTCAATGGTGCAGTAATAATATAATAGT | 9.5
AATATATATAATTATAGTACAGAAAATTAAAAAAGA [XGTACX_site2943] | 9.84
TCTTTAAATTTCTCAACACACAGTTATAAAAAATAA [CACACA_site2856] | 9.37
AACAATAAAAATAATTGTACAAGTTTAAAAAAAATT [XGTACX_site1987] | 9.65
TATATCTTATTTAACACACACAAAGAAAATAGAAAA [CACACA_site3732] | 10.1
TACAAGTATAAATAAGCACACATGTGGATATGTACA [CACACA_site4229] | 10
ATGAATCCTTAATATGAACACACAAATATATTACAC [CACACA_site7943] | 9.84

Sequence | gcPBM binding intensity (ln)
TTATTTCAAAGTAAATCAGTAAATATTTGTTTTCTT [CACACA_negctrl_site1572] | 9.45
TTTTTTATTTATCCTATATATTACTAAATGAAGAAC [GTGCAC_negctrl_site333] | 9.18
TCCTTATTTATATAATGTACTTTTTTTTTTCATTTT [XGTACX_site4275] | 9.64
GATAAAATAGGACCATATTCTTTAAAACGATAAAAT [XGTACX_negctrl_site405] | 9.7
ATATATATATATTTATGTACATATACATAATGTATA [XGTACX_site6387] | 9.57
TAAAGTTAAAAATTATGTACATATATATTGTATATT [XGTACX_site5528] | 9.65
TAAGAAGTATTTTCCTGTACATATTTTATATGTATG [XGTACX_site4658] | 9.65
TTATTTTATATATCACGTACATAGTTGTCTTCTTTT [XGTACX_site2906] | 9.78
AAAATATAAAATAATGCACACATAAACAAAAAATCA [CACACA_site8382] | 10.1
TACATATTTAAATACTGTACTCAAAAGAATTGTGCA [XGTACX_site2250] | 9.46
ACTAATATGTATATATATATATATATATATATATAT [CACACA_negctrl_site141] | 9.58
ATCAAAAAAAAAAAAAGTACACAAAATTTTTTATTA [XGTACX_site7986] | 9.43
TATATGTGTGTTATATGTACTTATATATATATATAT [XGTACX_site5570] | 9.98
ATAATGAACAAAGTAGTGCACTTTCCTTATCTTTTC | 9.71
AAGGTTTAAAATTACTGTACAAATATAAATAAATAT [XGTACX_site3756] | 9.57
GTTTATCACAGCCACGCACACATAATATCTGTATAT [CACACA_site5929] | 10
CTTATATTGTACAGTACACACCTTTATAATGTTATT [CACACA_site4280] | 10.1
GATTATTAATAGTAACGTACATATGTTATAAAATAT [XGTACX_site5277] | 9.75
TATAGTATTCTAAATGCATGTAAATTATGTATATAT [TGCATGCA_site931] | 9.71
AAATTCCACGAACACACACACATATAAATAAATAAA [CACACA_site6697] | 10.6
TAGTAAAAACCAAAATGTACATGTGCCATTTTTTTA [XGTACX_site2630] | 9.61
TATATTATACTAAGAAGTACAATATTTTTATTGTAA [XGTACX_site2810] | 9.34
ACATCAAGCAGACACACACACACACGCACACGCACA [CACACA_site6309] | 11.2

Sequence | gcPBM binding intensity (ln)
ACTATTCATGCATATACACACACATATATATATATT [CACACA_site9309] | 10.2
TTGTTTCTCTTTAAAAGTACAAAAATGGTTACATAT [XGTACX_site3109] | 9.54
TAGATTTTTTAATGTTGTACAAATATACGATATATA [XGTACX_site3258] | 9.39
AAATATATATAAAAGTGTACATTTGTTATAATCAGT [XGTACX_site4822] | 9.91
TTATATATTTCTACTCATATTACAATGTGAGAAATA [CACACA_negctrl_site873] | 9.29
CTCAACAAAATATGAGTGCATTGTTATTACATATAT | 9.84
AACATTAAAAGGGATACACACATATAAATAAATAAT [CACACA_site489] | 10
TAGATATATAATTTTTGTACGTAGTCGAATCTCAGA [XGTACX_site765] | 9.51
CCAACTAAAAAGGAATGTACATAGTTATGGTTGGAA [XGTACX_site8762] | 9.86
ACTTTAAACAAAAAAAGTACTCTTTAATGAATATAT [XGTACX_site7176] | 9.42
TATATATATATATATATATATATATATATATGTTGT [TGCATGCA_negctrl_site24] | 9.49
CAATATTTTATTTAAGCATGCTCTAGGGTGTAAAAG [TGCATGCA_site1001] | 9.53
CAATTTCTCTTAATTTGTACATATATGTTATACAAA [XGTACX_site3231] | 9.56
AAAAGAAAAGAGAGGAGTACAAAATATAATTATCTA [XGTACX_site5172] | 9.74
TTATTTATTTATATAGTGCAATAAACACATAAATAG | 9.34
TGTATATATTAATGTACACACATGCGTATGTTCGTT [CACACA_site3583] | 9.96
AAAAAAAAAAAAAGAACACACACAGTGCACATTCGG [CACACA_site8163] | 9.97
CATATTGGTATGCTCATGCACTTTTATTTTGTTATT [GTGCAC_site9553] | 10.1
AATTAGATACTAACAAGTACATATATATATATATAT [XGTACX_site2252] | 10.2
TTTCCCTAATGAAAGTGTACCTGTGAGAAAAAAAAG [XGTACX_site194] | 9.46
TTGTAATTATTAAACACACACAAAATATCTAGAATA [CACACA_site7231] | 10
ATTTTTTTTTGTGTATATAAATAAATAAATATATAT [GTGCAC_negctrl_site603] | 9.42
ATTTAGATTAACACTTGTACATAATACATACAAATA [XGTACX_site4147] | 9.5

Sequence | gcPBM binding intensity (ln)
TTTTTTATTTTTTTATTGTTTTATTGTTTCATTGTT [XGTACX_negctrl_site128] | 9.7
CCGTAGTTTTAAAATAGTACTTTTATGGTTAATAAA [XGTACX_site3162] | 9.38
TTACTACTATATTATACACACATATATTTATTTATA [CACACA_site7274] | 9.91
TATAAAAAGCAAAACAAAAAAACAAATTGAAAAATT [TGCATGCA_negctrl_site158] | 9.62
TATAAATAATAAAGATGTACTTTTTATGATTCCTAC [XGTACX_site7003] | 9.66
CAATTTATTTTTATTACACACTATCCAAATAATTTC [CACACA_site2956] | 9.66
CCATAAAATCATAAGCGTACTTAATATATTTTACTT [XGTACX_site559] | 9.72
TTAAACAATTTAGACATACACACAAAAATAATATTA [CACACA_site385] | 9.87
AACATACGACAATACGCACACATATATGTACATATT [CACACA_site1917] | 10
TATATAATAATTTAGAGTACTGATAAAATATTCCAT [XGTACX_site6200] | 9.31
AGCATACATATTTTTTGTACATATATATATATATAT [XGTACX_site8536] | 9.88
TAATTTTTCCTTTTTGCACACATTAACGTCGACGAA [CACACA_site4025] | 9.79
CCCTGCCTCTCTTTGGTGCGTTGTAACCCTCGAGGA | 9.49
AAAAAAAAAAAAAGCACACACACATATGTGTATATA [CACACA_site8225] | 10.3
TGTCTGTGCGGGTGTACACATTTCATATTACCCAAT [CACACA_site5593] | 9.8
TAAATTGTATATGAGACTATACTATAAAAGTATGAA [XGTACX_negctrl_site22] | 9.59
AACCTTACACAAGGGGTGCAATATTATTTCGATAAA [GTGCAC_site9600] | 9.47
TGCTCCTATTATATAGTGCATTTATTTTAATAAACG | 9.38
TAATTTATAAAAAATTGTACATTAAACATATATATA [XGTACX_site5164] | 9.45
TCTTTTCGTTCATGCTGTACTTAATTGCTCTAATTT [XGTACX_site4816] | 9.82
